Measurements reported in ChEMBL document CHEMBL1201862, “PubChem BioAssay data set” (2004).
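How tested: cells in 96-well plates exposed to compound for 48 hours at five concentrations. GI50 is the concentration that inhibits growth by half.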 Activity calls are given as the source filed them. No stated cut-off is given here; in the data, active = GI50 up to about 1.1 µM and inactive = higher. Peptide text beside a SMILES is read from it. * marks the point of attachment. Boc = CC(C)(C)OC(=O)*; OBn = c1ccc(CO*)cc1

These compounds were tested on NCI-H322M (assay: growth of human tumour cells (NCI), 48 h).

Compound	GI50
c1ccc2c(c1)CCc1c-2n(CCN2CCCCC2)c2ccccc12	inactive: 15.2 µM
[O-]c1c[n+](CCCC[n+]2cc([O-])on2)no1	inactive: > 100 µM
CCN(CC)CC(O)c1ccc2ccc3ccccc3c2c1 (configuration not stated)	inactive: 15.4 µM
Cc1nc2ccc(S(=O)(=O)Nc3ccccn3)cc2c(=O)n1NS(=O)(=O)c1ccccn1	inactive: > 100 µM
O=C(OC[C@H]1O[C@@H](OC(=O)c2cc(O)c(O)c(O)c2)[C@H](OC(=O)c2cc(O)c(O)c(O)c2)[C@@H](OC(=O)c2cc(O)c(O)c(O)c2)[C@@H]1OC(=O)c1cc(O)c(O)c(O)c1)c1cc(O)c(O)c(O)c1 [PENTAGALLOYL GLUCOSE]	inactive: 5.3 µM
COC(=O)C1=C(C)N(NC(=O)c2ccccc2)C(C)(O)C12CCOC2=O (configuration not stated)	inactive: > 100 µM
O=C(Nc1cccc2c1[nH]c1c(-c3ccccc3)nccc12)c1ccccc1[N+](=O)[O-]	inactive: 88.1 µM
Cc1cn([C@H]2C[C@@H](N3C(=O)c4ccccc4C3=O)[C@@H](CO[Si](C)(C)C(C)(C)C)O2)c(=O)[nH]c1=O	inactive: > 100 µM
CN(C)c1ccc(/C=C(\NC(=O)c2ccccc2)C(=O)NC(Cc2c[nH]c3ccccc23)C(=O)O)cc1 (configuration not stated)	inactive: > 100 µM
CCNC(=O)OCc1c(COC(=O)NCC)c(-c2ccc(Cl)c(Cl)c2)n2c1CCC2	inactive: 17.3 µM
O=C(O)CC(NC(=O)C(F)(F)F)C(=O)NC1Cc2ccccc2OC1=O (configuration not stated)	inactive: > 100 µM
O=C1OC(C2Cc3cc4c(cc3C2=O)CCC4)c2ccccc21 (configuration not stated)	inactive: 44.6 µM
COc1ccc2oc(S(=O)(=O)N3CC(CCl)c4ccc([N+](=O)[O-])cc43)cc2c1 (configuration not stated)	active: 0.447 µM
O=C1c2ccccc2-c2c1c(-c1ccc([N+](=O)[O-])cc1)nc1ccc3ccccc3c21	inactive: > 100 µM
CCOC(=O)c1cc(C2(O)CCN(CC(C)CC)C2=O)c(-c2cc(C)no2)[nH]1 (configuration not stated)	inactive: > 100 µM
COC(=O)/C=C(/OC)[C@H](C)[C@H](/C=C/c1csc(-c2csc(C(C)C)n2)n1)OC	inactive: 1.93 µM
O=C(CCCCCCCCC(=O)OCCCn1cc(C(=O)NC(=O)OCc2ccccc2)c(=O)[nH]c1=O)OCCCn1cc(C(=O)NC(=O)OCc2ccccc2)c(=O)[nH]c1=O	inactive: > 100 µM
O=c1c2cccnc2oc2c(Cl)cc(-c3nnn[nH]3)cc12	inactive: > 100 µM
N#C/C(=C\NC(=S)c1ccncc1)c1nc2ccccc2s1	inactive: > 100 µM
COc1cc2nncc(SCc3ccc(Cl)c(Cl)c3)c2cc1OC	inactive: > 92.7 µM
NNC(=S)N/N=C(\CC1OC(=O)c2ccccc21)c1ccccc1O (configuration not stated)	inactive: 31.1 µM
O=C1CNCCCN2CCN(CCCNCC(=O)Nc3ccc(cc3)S(=O)(=O)c3ccc(cc3)NC(=O)CNCCCN3CCN(CCCNCC(=O)Nc4ccc(cc4)S(=O)(=O)c4ccc(cc4)N1)CC3)CC2	inactive: 64.7 µM

Compound	GI50
N#CC(c1nc2ccccc2s1)c1nc(Cl)ncc1Br (configuration not stated)	inactive: > 100 µM
O=c1[nH]c2ccc(CC(=S)N3CCN(c4ccccc4)CC3)cc2s1	inactive: 53.6 µM
CC(C)C(NC(=O)CNC(=O)C1CCCN1C(=O)C(NC(=O)OC(C)(C)C)C(C)C)C(=O)NCC(=O)OCc1ccccc1 (configuration not stated) (Boc-VPGVG-OBn; configuration not given here)	inactive: > 100 µM
COC(=O)[C@@]12OC[C@]34[C@H]([C@@H](O)[C@@H]1O)[C@@]1(C)CC(=O)C(O)=C(C)[C@@H]1C[C@H]3OC(=O)[C@H](OC(=O)/C=C(\C)C(C)C)[C@@H]24 [BRUCEANTIN]	active: 0.0224 µM
O=C(Cc1ccccc1[N+](=O)[O-])C(CO)c1ccccc1[N+](=O)[O-] (configuration not stated)	inactive: > 100 µM
CNS(=O)(=O)NNS(=O)(=O)c1ccc(C)cc1	inactive: > 100 µM
Cc1ccc(/N=N/C(=N\c2ccc(Cl)cc2)c2ccc(N(CCC#N)CCC#N)cc2)cc1	inactive: > 100 µM
Oc1ccccc1/C=N/Cc1ccco1	inactive: > 100 µM
CCN(CC)CCC(=O)/C=C/c1ccccc1	inactive: 21.7 µM
COc1ccc(CNc2cnc3cc(N)ccc3n2)cc1OC	inactive: > 100 µM
CC(C)CC(NC(=O)c1cccc(O)c1O)C(=O)NCc1cc(CNC(=O)C(CC(C)C)NC(=O)c2cccc(O)c2O)cc(CNC(=O)C(CC(C)C)NC(=O)c2cccc(O)c2O)c1 (configuration not stated)	inactive: 11.2 µM
O=C(N/N=C1/C(=O)c2c3ccccc3cc3cccc1c23)c1cccc(Cl)c1	inactive: > 100 µM
CCOC(=O)c1sc2c(c1OC(=O)c1ccc(Cl)cc1Cl)c(=O)n(-c1ccccc1)c(=S)n2-c1ccccc1	inactive: 13.8 µM
C#CCNC(=O)NC(CCCNC(=O)OCc1ccccc1)C(=O)OCc1ccccc1 (configuration not stated)	inactive: > 100 µM
COc1ccc2c(c1OC(C)=O)C1=CC(=O)CCC13CCNC3C2 (configuration not stated)	inactive: > 100 µM
C[N+]1(CCN=C=NC2CCCCC2)CCOCC1	inactive: > 100 µM
C=C(CCC/C(C)=C/C=C/[C@@H](C)CCCc1ccoc1)C[C@@H]1OC(=O)[C@H](C)[C@@H]1O	inactive: 6.64 µM
CC(C)C[C@H](NC(=O)[C@H](Cc1cccc2ccccc12)NS(=O)(=O)c1cccc2cccnc12)B(O)O	active: 0.637 µM
O=C(Cc1ccccc1)NN1C(=O)C(Cl)C1c1cccc(O)c1 (configuration not stated)	inactive: 17.7 µM
NNC(=O)CS(=O)(=O)Nc1ncccn1	inactive: > 100 µM
Nn1c(SCC(=O)NCc2ccccc2)nc2ccccc2c1=O	inactive: 37.5 µM
CC1(C)c2ccccc2C(O)C12CCC(=O)CC2 (configuration not stated)	inactive: 85.7 µM

Compound	GI50
C[C@H]1C[C@H]2[C@@H]3CCC4=CC(=O)C=C[C@]4(C)C3=CC[C@]2(C)[C@@]1(O)C(=O)CO	inactive: > 100 µM
COC(=O)C1=COC2OC3/C(=C\c4ccc(O)c(OC)c4)C(=O)OC34C=CC1C24 (configuration not stated)	inactive: 17.7 µM
COc1c(-c2ccccc2)oc2c(CP(=O)(OC)OC)cccc2c1=O	inactive: > 100 µM
CC(=O)C(C(=O)c1ccc(C)cc1)[C@H]1OC(C)(C)O[C@H]1[C@H]1COC(C)(C)O1 (some centres not stated)	inactive: 8.41 µM
Fc1cccc(F)c1C1SCc2nc3cc(Cl)ccc3n21 (configuration not stated)	inactive: 22 µM
Cc1nc2c(cc1OCc1ccccc1)C(=O)C1=C(C2=O)C2OC(=O)CC2OC1(C)C (configuration not stated)	inactive: 2.07 µM
CCn1c(-c2ccc(OC(C)=O)cc2)c(C)c2cc(OC(C)=O)ccc21 [ZINDOXIFENE]	inactive: 28.9 µM
N#Cc1ccc(Nc2cnc3ccc(N)cc3n2)cc1	inactive: > 100 µM
COC1OC(CBr)C(OC(=O)c2ccccc2)C(OS(=O)(=O)c2ccc(C)cc2)C1Br (configuration not stated)	inactive: > 100 µM
Nc1ccc(-c2nc3ccccc3s2)cc1I	inactive: 69.7 µM
Cn1nc(S(N)(=O)=O)s/c1=N/C(N)=S	inactive: > 100 µM
CC(=O)Nc1ccc(C(=O)NN2C(=O)C(Cl)C2c2ccc([N+](=O)[O-])cc2)cc1 (configuration not stated)	inactive: > 100 µM
COc1ccc(C2CC3(c4ccccc4)ON=C(c4ccccc4)N3c3ccccc3S2)cc1 (configuration not stated)	inactive: > 100 µM
CCOC(=O)c1csc(NC(=O)C(C)N2CCOCC2)n1 (configuration not stated)	inactive: > 100 µM
CC(=O)CC12NC(=O)N(C)N=C1N(C)C(=O)N(C)C2=O (configuration not stated)	inactive: > 100 µM
CN1CCN(c2nc3c(c(=O)n(C)c(=O)n3C)n2C)CC1	inactive: > 100 µM
CC(=O)OC1CCC2(C)C(=CCC3C2CCC2(C)C(C(C)C(=O)O)CCC32)C1 (configuration not stated)	inactive: 89.3 µM
OCC1(CNc2cc(Cl)ncn2)CCC1	inactive: > 100 µM
CC(=O)c1sc2c(c1OC(=O)c1ccc(Cl)cc1Cl)c(=O)n(-c1ccccc1)c(=S)n2-c1ccccc1	active: 0.769 µM
N#C/C(=C\c1ccc([N+](=O)[O-])o1)c1n[nH]c(Cc2ccccc2)n1	inactive: 15 µM
O=C1C[C@@]23CCC4(CC2=CCC[C@H]3O1)OCCO4	inactive: > 100 µM
CC(=O)C(/N=N\C1CCC(S(=O)(=O)NB2N=CS2)CC1)C(=O)Nc1ccccc1C (configuration not stated)	inactive: 16.8 µM

Compound	GI50
CSc1nc(NCc2ccccc2)c2cnn(COCCO)c2n1	inactive: > 100 µM
CCOC1CC(C)N(C(=O)c2ccccc2)O1 (configuration not stated)	inactive: > 100 µM
NC(=O)Cc1nc2c(O)ncnc2n1C1OC(CO)C(O)C1O (configuration not stated)	inactive: > 100 µM
Cc1cc(S(=O)(=O)Nc2nc(N)nc(N3N=CCC3C)n2)c(SCC(=O)O)cc1Cl (configuration not stated)	inactive: > 10 µM
CON(C)C(=O)C(Cc1ccccc1)NC(=O)OC(C)(C)C (configuration not stated)	inactive: > 100 µM
COC(=O)/C=C(\S/C(=N\n1cc(C(=O)OC)c(C(=O)OC)c1-c1ccc(C)cc1)c1ccc(C)cc1)C(=O)OC	inactive: 31.6 µM
C/C=C/C=C/C1=NN(c2cccc(S(=O)(=O)O)c2)C2(C1)SCC(=O)N2c1nc2ccccc2s1 (configuration not stated)	inactive: > 100 µM
Cc1cc(N(CCC#N)CCC#N)ccc1C(/N=N/c1ccc([N+](=O)[O-])cc1)=N\NC(=O)c1cc(Cl)ccc1C(=O)c1ccccc1	inactive: 15.8 µM
O=C1c2cc3c(cc2CC12Cc1cc4c(cc1C2=O)CCC4)CCCC3 (configuration not stated)	inactive: > 100 µM
O=C1/C(=C/c2ccccc2S)N=C(c2ccccc2)N1c1nc2ccc(Sc3ccccc3)cc2[nH]1	inactive: 48.4 µM
CCNc1ncnc2c1nnn2CC	inactive: > 100 µM
COc1ccc2c(c1)CCc1c(C(C)=O)c3ccccc3n1C2	inactive: 58.3 µM
C=C(CN(C)C)C(=O)c1ccc(OC2OC(COC(C)=O)C(OC(C)=O)C(OC(C)=O)C2OC(C)=O)cc1 (configuration not stated)	inactive: 17.9 µM
CCc1ccccc1NNc1cc(=O)[nH]c(=O)[nH]1	inactive: 22.8 µM
COc1ccc(/N=N/c2c(O)ccc3ccccc23)cc1	inactive: > 100 µM
C[N+]1=C(c2cccnc2/C=N/O)OCC1(C)C	inactive: > 100 µM
CCOC(=O)Cn1c(=O)c2nc(SC)sc2n(CC)c1=S	inactive: > 100 µM
CCOC(=O)CCc1c(C)c2c(OC)cc(OC)cc2oc1=O	inactive: > 100 µM
CCOC(=O)c1csc(NC(=O)CCN(CC)CC)n1	inactive: > 100 µM
CCOC(=O)CCC(NC(=O)OCc1ccccc1)C(=O)NC(CCC(=O)OCC)C(=O)NNC(=O)OC(C)(C)C (configuration not stated)	inactive: > 100 µM
CCCc1[nH]c2ccccc2c1-c1c(CCC)[nH]c2ccccc12	inactive: 12.6 µM
